This is one part of the list. Single values are uncertain, as repeats are few or missing.
Test system: A101D
Assay: cell count relative to DMSO control; melanoma cells; higher = more viable cells
Settings: library dose: low library concentration; 72 h
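Also: cell number obtained by counting DAPI-stained nuclei in high-throughput microscope images with image analysis software, screen run in 1,536-well plates.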

| SMILES | cell count [%] |
| --- | --- |
| Cc1cc(N2CCOCC2)cc2[nH]c(-c3c(NC[C@@H](O)c4cccc(Cl)c4)cc[nH]c3=O)nc12 + NCC(=O)Nc1ccc(-n2nc(C(F)(F)F)cc2-c2ccc3c(ccc4ccccc43)c2)cc1 [OSU03012] (first compound 0.2 µM, partner dose 1 µM) | 110 |
| O=C(O)c1ccc2c(c1)nc(Nc1cccc(Cl)c1)c1ccncc12 + CO[C@@H]1[C@H](N(C)C(=O)c2ccccc2)C[C@H]2O[C@]1(C)n1c3ccccc3c3c4c(c5c6ccccc6n2c5c31)C(=O)NC4 [Midostaurin] (first compound 0.4 µM, partner dose 0.08 µM) | 84.2 |
| O=C(Nc1cc(C(F)(F)F)cc(C(F)(F)F)c1)c1cc(Cl)ccc1O + NCC(=O)Nc1ccc(-n2nc(C(F)(F)F)cc2-c2ccc3c(ccc4ccccc43)c2)cc1 [OSU03012] (first compound 0.016 µM, partner dose 1 µM) | 84.5 |
| O=C(Nc1cc(C(F)(F)F)cc(C(F)(F)F)c1)c1cc(Cl)ccc1O + OCc1c[nH]c2ccccc12 [Indole-3-carbinol] (first compound 0.016 µM, partner dose 0.8 µM) | 102 |
| O=C(O)c1ccc2c(c1)nc(Nc1cccc(Cl)c1)c1ccncc12 + Cc1cc(N2CCOCC2)cc2[nH]c(-c3c(NC[C@@H](O)c4cccc(Cl)c4)cc[nH]c3=O)nc12 [BMS536924] (first compound 0.4 µM, partner dose 0.2 µM) | 103 |
| O=C(O)[C@@H]1[O][Sb](=[O])([O][Sb]2(=[O])[O][C@H]([C@H](O)CO)[C@H](O)[C@H](C(=O)O)[O]2)[O][C@H]([C@H](O)CO)[C@@H]1O (stereo partly specified) [stibogluconate] + CC(C)(C)c1cnc(CSc2cnc(NC(=O)C3CCNCC3)s2)o1 [SNS-032] (first compound 2 µM, partner dose 0.01 µM) | 96.6 |

From the supplement of paper PMC4604168 (melanoma cell lines)
